From publication PMC9372576
These are yes or no findings as the source states them, for the method shown. For part of these data: Binding seen in cells or lysates may run through a third protein. Some binding calls cover weakened binding; strength is not graded here. For part of these data: Sequences can lack the tags named with a protein.

What was measured:
[1] = molecular target: GvpJ (Halobacterium salinarum) (UniProt P24374); test: SDS-PAGE and Western analysis of lysates; lysates of Hfx. volcanii transformants producing one Gvp protein alone (controls); bands larger than the monomer
[2] = molecular target: T1, CBDA (Halobacterium salinarum) (UniProt P08958); test: pull-down; CBD-tagged bait and one untagged prey co-produced in Hfx. volcanii CBDX/Y transformants; lysate in 2.5 M KCl buffer pH 8.0 bound to cellulose (Avicel), six washes, elution with ethylene glycol, Western analysis with Gvp antisera
T1 sequence: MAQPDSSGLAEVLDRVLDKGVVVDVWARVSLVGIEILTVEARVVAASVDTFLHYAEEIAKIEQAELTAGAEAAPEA

[3] = molecular target: T1, CBDA (Halobacterium salinarum); test: pull-down; CBDA co-produced with GvpF through GvpM all together (CBDA/F-M transformants); cellulose matrix, elution fraction probed by Western analysis with each antiserum
[4] = molecular target: T2, CBDC (Halobacterium salinarum) (UniProt P24574); test: pull-down; CBD-tagged bait and one untagged prey co-produced in Hfx. volcanii CBDX/Y transformants; lysate in 2.5 M KCl buffer pH 8.0 bound to cellulose (Avicel), six washes, elution with ethylene glycol, Western analysis with Gvp antisera
T2 sequence: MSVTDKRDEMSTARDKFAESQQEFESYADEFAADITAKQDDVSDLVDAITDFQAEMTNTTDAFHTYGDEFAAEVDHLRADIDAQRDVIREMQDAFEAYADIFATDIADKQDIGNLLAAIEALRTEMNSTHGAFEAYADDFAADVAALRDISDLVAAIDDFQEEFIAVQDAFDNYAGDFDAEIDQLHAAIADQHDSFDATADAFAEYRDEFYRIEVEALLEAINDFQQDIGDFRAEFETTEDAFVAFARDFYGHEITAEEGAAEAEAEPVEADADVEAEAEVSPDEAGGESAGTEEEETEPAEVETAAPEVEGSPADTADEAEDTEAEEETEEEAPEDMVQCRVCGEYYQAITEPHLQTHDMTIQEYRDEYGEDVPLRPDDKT

[5] = molecular target: GvpC (Halobacterium salinarum) (UniProt P24574); test: SDS-PAGE and Western analysis of lysates; lysates of Hfx. volcanii transformants producing one Gvp protein alone (controls); bands larger than the monomer
[6] = molecular target: T3, CBDO (Halobacterium salinarum) (UniProt O51968); test: pull-down; CBD-tagged bait and one untagged prey co-produced in Hfx. volcanii CBDX/Y transformants; lysate in 2.5 M KCl buffer pH 8.0 bound to cellulose (Avicel), six washes, elution with ethylene glycol, Western analysis with Gvp antisera
T3 sequence: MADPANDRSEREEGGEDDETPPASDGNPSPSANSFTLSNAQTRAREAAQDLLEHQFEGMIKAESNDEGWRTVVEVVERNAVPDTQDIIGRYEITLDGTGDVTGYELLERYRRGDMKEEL

[7] = molecular target: T4, GvpC C-terminal fragment Cterm (Halobacterium salinarum) (UniProt P24574); test: split reporter; split-GFP (NGFP and CGFP of salt-stable mGFP2) in Hfx. volcanii transformants, 24 h 37 °C then 24 h 30 °C; relative fluorescence (rf) against the wild type; the highest of eight tag combinations is given
T4 sequence: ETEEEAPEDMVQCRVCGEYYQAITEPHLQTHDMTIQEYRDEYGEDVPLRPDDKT

[8] = molecular target: T5, GvpA fragment A1-34 (Halobacterium salinarum) (UniProt P08958); test: as above
T5 sequence: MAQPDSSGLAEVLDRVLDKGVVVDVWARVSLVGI

[9] = molecular target: T6, GvpA fragment A1-43 (Halobacterium salinarum) (UniProt P08958); test: as above
T6 sequence: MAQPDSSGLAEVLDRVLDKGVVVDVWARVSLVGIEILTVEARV

[10] = molecular target: T7, GvpA fragment A44-76 (Halobacterium salinarum) (UniProt P08958); test: as above
T7 sequence: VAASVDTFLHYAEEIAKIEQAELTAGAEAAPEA

[11] = molecular target: T8, GvpA fragment A20-47 (Halobacterium salinarum) (UniProt P08958); test: as above
T8 sequence: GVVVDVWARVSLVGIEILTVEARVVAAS

B1: GvpJ (protein, UniProt P24374 1-114)
chain: MSDPKPTRSQGDLAEMLEMLLDKGVVVNADIAVSVGDTELLGIELRAAIASFETAAEYGLEFPTGTDMERVESAANISPDQSDPASETQSETESTNPLSDDSTPTASTSAEETK
In the case of B1, the binding [1] is reported as “binds”, the binding [2] is reported as “binds” and the binding [3] is reported as “binds”.

B2: GvpO (protein, UniProt O51968 1-119)
chain: MADPANDRSEREEGGEDDETPPASDGNPSPSANSFTLSNAQTRAREAAQDLLEHQFEGMIKAESNDEGWRTVVEVVERNAVPDTQDIIGRYEITLDGTGDVTGYELLERYRRGDMKEEL
In the case of B2, the binding [4] is reported as “binds” and the binding [2] is reported as “binds”.

B3: GvpC (protein, UniProt P24574 1-382)
chain: MSVTDKRDEMSTARDKFAESQQEFESYADEFAADITAKQDDVSDLVDAITDFQAEMTNTTDAFHTYGDEFAAEVDHLRADIDAQRDVIREMQDAFEAYADIFATDIADKQDIGNLLAAIEALRTEMNSTHGAFEAYADDFAADVAALRDISDLVAAIDDFQEEFIAVQDAFDNYAGDFDAEIDQLHAAIADQHDSFDATADAFAEYRDEFYRIEVEALLEAINDFQQDIGDFRAEFETTEDAFVAFARDFYGHEITAEEGAAEAEAEPVEADADVEAEAEVSPDEAGGESAGTEEEETEPAEVETAAPEVEGSPADTADEAEDTEAEEETEEEAPEDMVQCRVCGEYYQAITEPHLQTHDMTIQEYRDEYGEDVPLRPDDKT
In the case of B3, the binding [5] is reported as “binds” and the binding [6] is reported as “binds”.

B4: GvpO fused to NGFP or CGFP (protein, UniProt O51968 1-119)
chain: MADPANDRSEREEGGEDDETPPASDGNPSPSANSFTLSNAQTRAREAAQDLLEHQFEGMIKAESNDEGWRTVVEVVERNAVPDTQDIIGRYEITLDGTGDVTGYELLERYRRGDMKEEL
With B4 the binding [7] was “binds”.

For MAQPDSSGLAEVLDRVLDKGVV (domain or fragment, UniProt P08958 1-22) [GvpA fragment A1-22], the binding [8] was “no binding (tested: rf ≤ 0.48)”, the binding [9] was “no binding (tested: rf ≤ 0.48)” and the binding [10] was “no binding (tested: rf ≤ 0.48)”. The binding [11] was “no binding (tested: rf ≤ 0.48)”.
